From PubChem BioAssay AID504832 (National Center for Advancing Translational Sciences (NCATS), 2011)
Hit rate of the full screen: of about 310,000 compounds, about 18,000 (5.8%) were called active. Inconclusive results, whose numbers are uncertain, are shown with a selection of clear calls. Calls follow the shape of the dose curve; as a rule, active = well fitted inhibition curve with a large enough effect; inconclusive = small, poorly fitted or top-dose-only effect, or another doubt; inactive = no such curve, though single readings can be large or run the other way. No potency is given beside an inconclusive call; the fits are too rough.
% is scaled to controls: 0 for no effect and ±100 for the full control effect; potency is read from the fitted curve at half-maximal effect; tags tell the direction and shape of the fitted curve.

Experiment: Primary qHTS for delayed death inhibitors of the malarial parasite plastid, 48 hour incubation
Settings: P. falciparum luciferase growth in erythrocytes; series mostly up to 28.7 µM; activity change, negative = inhibition: at the top concentration
In short: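 Erythrocytes infected with P. falciparum carrying an integrated firefly luciferase reporter (2% hematocrit, 0.1% parasitemia final) were exposed to compounds in RPMI 1640 with 0.5% Albumax at 37 C, 5% CO2. Growth inhibition was scored as reduced luminescence.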
With `Cn1c(-c2ccc(Br)cc2)cnc1NCc1cccnc1` the Potency was inconclusive [inhibitor, partial curve, poor fit].
In the case of `CN(CC(=O)N1CCCc2c1c(=O)oc1ccc(O)cc21)Cc1ccccc1`, the Potency is reported as active: 9.28 µM.
For `CCOC(=O)CNc1ccc2c(c1)OCO2`, the Potency was inconclusive [inhibitor, single point].
In the case of `CN(C)S(=O)(=O)c1cccc(NC(=O)c2ccccc2OCc2ccc(F)cc2)c1`, the Potency is reported as active: 11.7 µM.
With `O=C1c2ccccc2NC(c2ccc(-c3cccc([N+](=O)[O-])c3)o2)N1O` (configuration not stated) the Potency was inconclusive [inhibitor, single point].
In the case of `Cc1cc(C)c2cc(CN(CC3CCCO3)S(=O)(=O)c3ccc4c(c3)OCCO4)c(=O)[nH]c2c1` (configuration not stated), the Potency is reported as inconclusive [inhibitor, partial curve].
For `O=C(CSc1ccc2c(c1)OCCO2)N1CCN(c2ccccc2O)CC1`, the Potency was inconclusive [inhibitor, single point].
For `O=C(Nc1ccc(Cl)cn1)c1cc2ccccc2o1`, the “activity change, negative = inhibition” value was inactive: 149%.
For `O=C(N/N=C/c1ccc(-c2cccc(C(F)(F)F)c2)o1)c1ccccc1Br`, the “activity change, negative = inhibition” value was inactive: 0.545%.
For `CC1(C)CC(=O)c2sc(NC(=O)CN3C(=O)CCC3=O)nc2C1`, the “activity change, negative = inhibition” value was inactive: 62.6%.
With `O=C(COC(=O)/C=C/c1cc(Br)ccc1F)Nc1ccc2[nH]c(=O)[nH]c2c1` the “activity change, negative = inhibition” value was inactive: 11.2%.
With `COc1ccccc1C(CNC(=O)c1cccc(NS(=O)(=O)c2ccc(Br)cc2)c1)N(C)C` (configuration not stated) the Potency was inconclusive [inhibitor, partial curve].
With `CN(C)N(C(=O)c1cc(-c2cccs2)nn1-c1ccccc1)C1CCS(=O)(=O)C1` (configuration not stated) the Potency was inconclusive [inhibitor, single point].
With `O=C(Nc1cc(N2CCOCC2)ncn1)NC1(C(F)(F)F)Oc2ccc(Cl)cc2O1` (configuration not stated) the Potency was inconclusive [inhibitor, single point].
For `C[N+]12CCCCC1[C@@H](CO)CCC2` (some centres not stated), the Potency was inconclusive [inhibitor, partial curve].
In the case of `Cc1cccc(OCCn2c(NC(=O)c3ccco3)nc3ccccc32)c1`, the Potency is reported as inconclusive [inhibitor, partial curve, poor fit].
In the case of `Cc1ccc(F)cc1CNC(=O)c1cc(COc2ccc3ncccc3c2)on1`, the “activity change, negative = inhibition” value is reported as inactive: 11.2%.
With `COc1cccc(CN2CCC(N(CCc3ccccc3)Cc3ccccc3)CC2)c1OC` the Potency was inconclusive [inhibitor, single point].
With `CCC(=O)Nc1nn(C)c2nc3c(C)cccc3cc12` the Potency was inconclusive [inhibitor, single point].
For `COc1cc2c(cc1OC)CN(CC(O)c1ccccc1)CC2` (configuration not stated), the Potency was inconclusive [inhibitor, single point].
In the case of `CCN(CC)S(=O)(=O)c1cc(NC(=O)CSc2nnc(N)s2)ccc1C`, the Potency is reported as inconclusive [inhibitor, partial curve].
With `CSc1nc2ccsc2c(=O)n1-c1ccccn1` the Potency was inconclusive [inhibitor, single point].
In the case of `COc1ccc(CCNC(=O)C(NC(=O)OCc2ccccc2)C(C)C)cc1OC` (configuration not stated), the Potency is reported as inconclusive [inhibitor, full curve].
For `COc1ccc(-c2noc(CN(C(=O)c3ccc4c(c3)OCO4)C(C)C)n2)cc1OC`, the Potency was inconclusive [inhibitor, single point].
In the case of `O=C(Nc1ccccn1)c1ccc(C(=O)Nc2ccccn2)cc1`, the “activity change, negative = inhibition” value is reported as inactive: 12.2%.
With `Cc1ccc2c(c1)CCCN2C(=O)C1CCCO1` (configuration not stated) the Potency was inconclusive [inhibitor, partial curve].
For `Cc1nc(SCc2ccccc2F)c2oc3ccccc3c2n1`, the Potency was inconclusive [inhibitor, partial curve].
With `COc1ccc(C2c3ccc4ccccc4c3Oc3ncn4nc(Cc5ccccc5)nc4c32)cc1OC` (configuration not stated) the Potency was inconclusive [inhibitor, full curve, poor fit].
In the case of `O=C(NC1CCS(=O)(=O)C1)c1sc2ccccc2c1Cl` (configuration not stated), the “activity change, negative = inhibition” value is reported as inactive: -39.7%.
For `Cc1ccc(-c2[nH]c3cc(C(N)=O)ccc3c(=O)c2O)cc1`, the Potency was inconclusive [inhibitor, single point].
In the case of `O=C(c1ccncc1)N1CCN(S(=O)(=O)c2cccc(F)c2)CC1`, the Potency is reported as inconclusive [inhibitor, partial curve, poor fit].
With `O=C1CN(C(=O)c2ccccc2F)C(c2ccc(F)cc2)c2cc(Br)ccc2N1` (configuration not stated) the Potency was inconclusive [inhibitor, partial curve].
With `CCOc1ccc(-n2c(C)cc(/C=N/N(C)C)c2C)cc1` the Potency was inconclusive [inhibitor, single point].
With `OC(CON=C1c2ccccc2-c2ccccc21)CN1CCNCC1` (configuration not stated) the Potency was inconclusive [inhibitor, single point].
With `Cc1ccc(O)c(C(=O)CC(=O)c2ccc(Cl)cc2)c1` the Potency was inconclusive [inhibitor, single point].
In the case of `C[n+]1ccccc1COc1ccc(C(C)(C)C)cc1`, the Potency is reported as inconclusive [inhibitor, full curve].
In the case of `O=C(c1sc2ccccc2c1Cl)N1CCN(c2ncccn2)CC1`, the “activity change, negative = inhibition” value is reported as inactive: 22.7%.
With `Fc1ccc(F)c(CNc2ncnc3cc(Cl)ccc23)c1` the Potency was inconclusive [inhibitor, single point].
In the case of `CN(Cc1ccccn1)C(=O)C1CCC(=O)N(CCc2ccc(Cl)cc2)C1` (configuration not stated), the “activity change, negative = inhibition” value is reported as inactive: 0.102%.
For `CC(=O)N1CCc2cc(S(=O)(=O)NC(CC(C)C)C(=O)N3CCn4c3nc3ccccc34)ccc21` (configuration not stated), the Potency was inconclusive [inhibitor, partial curve].
In the case of `CC1CC(C)CN(C(=O)COC(=O)CNC(=O)C23CC4CC(CC(C4)C2)C3)C1` (configuration not stated), the “activity change, negative = inhibition” value is reported as inactive: -12.6%.
With `CCOC(=O)c1sc(N2C(=O)C(O)=C(C(=O)c3ccco3)C2c2ccco2)nc1C` (configuration not stated) the “activity change, negative = inhibition” value was inactive: -10.1%.
With `Cc1ccc(-c2c[n+](CC(=O)Nc3ccc(C)cc3C)c3n2CCC3)cc1` the Potency was inconclusive [inhibitor, partial curve].
For `CCC1(c2ccc(Cl)cc2)NC(=O)N(CC(=O)NC2CCCC(C)C2C)C1=O` (configuration not stated), the Potency was inconclusive [inhibitor, single point].
For `Fc1ccc(/C=N/Nc2nc3ccccc3[nH]2)cc1F`, the Potency was active: 0.657 µM.
With `C=C(C)C1Cc2nc(N)nc(C)c2C1` (configuration not stated) the “activity change, negative = inhibition” value was inactive: 50.3%.
For `CCc1nn(C(CC)C(=O)NCCCN2CC(C)CC(C)C2)c(=O)c2cc3oc(C)cc3n12` (configuration not stated), the Potency was inconclusive [inhibitor, single point].
For `CCCN(C(=O)C1CCN(S(=O)(=O)c2ccc(OC)c(OC)c2)CC1)C1CCS(=O)(=O)C1` (configuration not stated), the Potency was inconclusive [inhibitor, single point].
With `O=C(C1CCN(S(=O)(=O)c2ccccc2F)CC1)N1CCCC1` the “activity change, negative = inhibition” value was inactive: 8.45%.
With `O=C(CC(=O)c1ccccc1)Nc1cc([N+](=O)[O-])ccc1Cl` the “activity change, negative = inhibition” value was inactive: 0%.
With `COc1cccc(CN2CCN(C(=O)c3cc(-c4ccccn4)nc4ccc(Cl)cc34)CC2)c1` the Potency was inconclusive [inhibitor, partial curve, poor fit].
For `COc1cc2c(cc1NC(=O)c1cc(-c3ccccn3)nc3ccccc13)oc1ccccc12`, the “activity change, negative = inhibition” value was inactive: 5.85%.
With `CCCCOc1ccc(C2=CSC3=NCCN23)cc1[N+](=O)[O-]` the Potency was inconclusive [inhibitor, single point].
For `CC(C)Oc1ccc(S(=O)(=O)N2CCOCC2)cc1NC(=O)C(C)Oc1ccc(F)cc1` (configuration not stated), the Potency was active: 13.1 µM.
With `Cc1ccc(C(=O)Nc2cccnc2)cc1Cl` the “activity change, negative = inhibition” value was inactive: 56.2%.
In the case of `O=C(NCc1n[nH]c(=S)n1-c1cccc(C(F)(F)F)c1)c1ccco1`, the “activity change, negative = inhibition” value is reported as inactive: -23.4%.
In the case of `Cc1ccc(C)c(C(=O)OCC(=O)N(C)c2ccccc2)c1`, the “activity change, negative = inhibition” value is reported as inactive: -23.5%.
With `COc1ccc(C(=O)NCc2nnc(SCC(=O)Nc3cccc(OC)c3)o2)cc1` the “activity change, negative = inhibition” value was inactive: 15.9%.
With `CCCn1c(=N)n(CC(=O)C(C)(C)C)c2ccccc21` the Potency was inconclusive [inhibitor, single point].
In the case of `NCCCCCc1nnc(SCc2cccc(Cl)c2)o1`, the Potency is reported as inconclusive [inhibitor, partial curve, poor fit].
In the case of `O=c1o[nH]c(-c2ccccc2)c1C=Nc1ccc(Cl)cc1`, the “activity change, negative = inhibition” value is reported as inactive: 16.1%.
For `COc1cc(-c2nnc(COC(=O)C3c4ccccc4Oc4ccccc43)o2)cc(OC)c1OC`, the “activity change, negative = inhibition” value was inactive: -12.1%.
In the case of `COc1ccc(CC(=O)Nc2cccc(/C(C)=N/NC(=O)c3cccc([N+](=O)[O-])c3)c2)cc1`, the “activity change, negative = inhibition” value is reported as inactive: 1.5%.
For `O=C(NC(=O)c1c(F)cccc1F)O/N=C1\CCCc2occc21`, the Potency was active: 2.33 µM.
With `CC(=O)c1ccc(NC(=O)CCn2c(=S)oc3ccccc32)cc1` the “activity change, negative = inhibition” value was inactive: 7.7%.
With `Oc1ccc(Br)cc1/C=N/Nc1nc(N2CCCCC2)nc(N2CCOCC2)n1` the Potency was inconclusive [inhibitor, partial curve].
With `CN1CCN(S(=O)(=O)c2ccc(Cc3ccc(S(=O)(=O)N4CCN(C)CC4)cc3)cc2)CC1` the Potency was inconclusive [inhibitor, partial curve, poor fit].
For `N#Cc1c(N)sc2c1CCN(CCc1ccccc1)C2`, the Potency was active: 10.4 µM.
With `N#CC1=C(S)N=C(N)C(c2nc(-c3ccccc3)cs2)C12CCCC2` (configuration not stated) the Potency was inconclusive [inhibitor, single point].
In the case of `C=CCn1c(-c2ccc(OC)cc2)nc2nc3ccccc3nc21`, the “activity change, negative = inhibition” value is reported as inactive: -22.9%.
With `Cc1ccc(-c2c(C(=O)N/N=C/c3cccs3)nnn2-c2nonc2N)cc1` the Potency was inconclusive [inhibitor, full curve].
With `COc1ccc(NS(=O)(=O)c2cc(NC(=O)c3cccnc3Cl)ccc2N2CCCC2)cc1` the Potency was inconclusive [inhibitor, partial curve, poor fit].
